{"source": "PubChem BioAssay AID504332", "about": "(National Center for Advancing Translational Sciences (NCATS), 2011)", "note": "The whole screen tested about 350,000 compounds, of which about 31,000 (8.9%) were called active. This list was built around the results that the source calls inconclusive (neither active nor inactive); the mix of calls is not that of the screen. Calls follow the shape of the dose curve; as a rule, active = well fitted inhibition curve with a large enough effect; inconclusive = small, poorly fitted or top-dose-only effect; inactive = no such curve, though single readings can be large or run the other way. Potencies of inconclusive entries are doubtful fits and often do not repeat. % is scaled to controls: 0 for no effect and ±100 for the full control effect; potency is read from the fitted curve at half-maximal effect; tags tell the direction and shape of the fitted curve."}
{"biological_target": "Histone-lysine N-methyltransferase EHMT2 (Homo sapiens) (UniProt Q96KQ7)", "sequence (Q96KQ7 whole entry, looked up)": "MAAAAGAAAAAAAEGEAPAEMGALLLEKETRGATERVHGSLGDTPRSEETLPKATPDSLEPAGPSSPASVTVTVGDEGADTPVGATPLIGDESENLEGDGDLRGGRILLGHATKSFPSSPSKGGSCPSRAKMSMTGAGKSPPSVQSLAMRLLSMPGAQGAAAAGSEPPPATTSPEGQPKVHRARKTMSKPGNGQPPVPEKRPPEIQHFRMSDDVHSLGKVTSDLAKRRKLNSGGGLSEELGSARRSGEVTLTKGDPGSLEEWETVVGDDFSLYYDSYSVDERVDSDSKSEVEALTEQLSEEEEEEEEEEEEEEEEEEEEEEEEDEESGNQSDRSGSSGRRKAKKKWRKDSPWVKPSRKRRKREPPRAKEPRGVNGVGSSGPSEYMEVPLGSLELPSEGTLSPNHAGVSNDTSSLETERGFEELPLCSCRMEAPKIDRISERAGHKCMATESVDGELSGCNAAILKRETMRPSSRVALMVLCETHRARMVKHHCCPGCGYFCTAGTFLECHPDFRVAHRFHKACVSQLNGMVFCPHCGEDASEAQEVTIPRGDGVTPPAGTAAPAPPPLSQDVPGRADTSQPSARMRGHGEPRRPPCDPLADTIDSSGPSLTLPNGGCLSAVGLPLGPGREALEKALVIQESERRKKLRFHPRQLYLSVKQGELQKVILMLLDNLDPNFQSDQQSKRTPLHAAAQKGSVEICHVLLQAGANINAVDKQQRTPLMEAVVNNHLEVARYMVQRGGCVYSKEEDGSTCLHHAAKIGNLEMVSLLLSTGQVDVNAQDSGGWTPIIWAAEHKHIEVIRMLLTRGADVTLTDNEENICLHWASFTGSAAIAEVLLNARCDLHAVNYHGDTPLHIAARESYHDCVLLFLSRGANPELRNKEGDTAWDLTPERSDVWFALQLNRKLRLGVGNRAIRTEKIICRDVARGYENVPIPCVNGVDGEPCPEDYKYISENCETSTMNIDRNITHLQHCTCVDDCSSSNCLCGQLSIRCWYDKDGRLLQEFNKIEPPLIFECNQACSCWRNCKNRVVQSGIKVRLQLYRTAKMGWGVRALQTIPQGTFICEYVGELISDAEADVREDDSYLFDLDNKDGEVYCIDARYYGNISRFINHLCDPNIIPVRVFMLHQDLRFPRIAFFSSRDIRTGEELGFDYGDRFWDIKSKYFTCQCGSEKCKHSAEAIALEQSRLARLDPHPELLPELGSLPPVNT", "assay": "qHTS Assay for Inhibitors of Histone Lysine Methyltransferase G9a; also: nearly all actives have a fitted effect of over 75% in size", "details": "G9a H3K9 monomethylation, AlphaScreen, 2 h; activity, negative = inhibition: at 59 µM (top of the series) unless noted", "in_short": "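Readings reflect AlphaScreen signal from monomethyl-H3K9 antibody detection. HMT at 20 nM; substrate b-H3K9 500 nM; cofactor SAM 20 uM; 2 h RT reaction; compounds tested as titrations in qHTS with 15 min preincubation.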"}
{"smiles": "CN1C(N)=NC(=O)/C1=C\\c1ccc(Br)cc1", "Potency": "inconclusive: 0.794 µM [inhibitor, single point]"}
{"smiles": "COc1ccc(CN(C)C(=O)c2cccc(S(=O)(=O)N3CCN(c4ccccc4)CC3)c2)c(OC)c1OC", "activity, negative = inhibition": "inconclusive: -62% [inhibitor] [at 2.33 µM]"}
{"smiles": "CCOc1ccc(N=C2NC(=O)C(CC(=O)O)S2)cc1", "note": "(stereo not given)", "activity, negative = inhibition": "inactive: 30.9% [at 12.7 µM]"}
{"smiles": "Cn1c2c(c(=O)n(C)c1=O)C(C(F)(F)F)(C(F)(F)F)N=C(c1ccccc1Cl)N2", "Potency": "inconclusive: 31.6 µM [inhibitor, single point]"}
{"smiles": "COC(=O)Cc1c[nH]c2ccc(OCC(O)CNC(C)C)cc12", "note": "(stereo not given)", "Potency": "inconclusive: 79.4 µM [inhibitor, single point]"}
{"smiles": "O=C(c1cccc(F)c1)N1CCC[C@@]2(CCN(c3ccccn3)C2)C1", "activity, negative = inhibition": "inactive: -5.6% [at 12.7 µM]"}
{"smiles": "CCC(C)[C@H](NC(=O)NCc1ccccc1Cl)C(=O)OC", "note": "(stereo not given in full)", "Potency": "inconclusive: 39.8 µM [inhibitor, single point]"}
{"smiles": "O=C(CSc1nc(C2CC2)nc2ccccc12)N1c2ccccc2Sc2ccc(C(F)(F)F)cc21", "Potency": "inactive"}
{"smiles": "CC(C)(C)NC(=S)N1CCC(C(=O)c2ccc(Cl)cc2)CC1", "Potency": "inconclusive: 89.1 µM [inhibitor, single point]"}
{"smiles": "O=C1CC(Sc2ncn[nH]2)C(=O)N1c1ccccc1", "note": "(stereo not given)", "Potency": "inconclusive: 1.26 µM [inhibitor, full curve, poor fit]"}
{"smiles": "COc1ccccc1C(=O)NCC(=O)NCCC(c1ccccc1)c1ccccc1", "Potency": "inconclusive: 7.94 µM [inhibitor, single point]"}
{"smiles": "CCc1cc2c(nc1CC)CCN(CC/C(C)=N/OC[C@H]1O[C@H](c3ccccc3)C=C[C@@H]1Oc1ccc(OC)cc1)C2", "Potency": "active: 44.7 µM"}
{"smiles": "Cc1cc(C(=O)CNCc2ccco2)c(C)n1-c1ccc(F)cc1", "Potency": "active: 22.4 µM"}
{"smiles": "Cc1cc(C)nc(SCCCNCc2ccccc2)n1", "Potency": "active: 50.1 µM"}
{"smiles": "Cc1ccc(S(=O)(=O)N2CCC(=O)N(C(COCc3ccc(Cl)cc3Cl)Cc3ccccc3)CC2)cc1", "note": "(stereo not given)", "Potency": "inconclusive: 89.1 µM [inhibitor, partial curve, poor fit]"}
{"smiles": "CC(=O)Oc1cccc(NC(=O)c2ccc3c(c2)C(=O)N(CC(C)C)C3=O)c1", "Potency": "inactive"}
{"smiles": "C=CCN1CCN(C(c2ccc(OC)c(OC)c2)c2nnnn2C(C)(C)C)CC1", "note": "(stereo not given)", "Potency": "active: 50.1 µM"}
{"smiles": "Clc1ccccc1-c1nnc2sc(-c3ccc(Br)o3)nn12", "activity, negative = inhibition": "inconclusive: -53.4% [inhibitor]"}
{"smiles": "CC(NC(=O)CCCc1c[nH]c2ccccc12)c1ccc(F)cc1", "note": "(stereo not given)", "Potency": "inconclusive: 79.4 µM [inhibitor, single point]"}
{"smiles": "Cc1cccc(N2CCCn3c2nc2c3c(=O)n(CC(=O)OCc3ccccc3)c(=O)n2C)c1", "Potency": "inconclusive: 100 µM [inhibitor, single point]"}
{"smiles": "Cc1cc(C)n(-c2cc(N3CCN(S(=O)(=O)c4ccc(Cl)cc4)CC3)ccc2[N+](=O)[O-])n1", "Potency": "inconclusive: 79.4 µM [inhibitor, single point]"}
{"smiles": "O=C(CSc1nnc(C2COc3ccccc3O2)o1)N1CCOCC1", "note": "(stereo not given)", "Potency": "inconclusive: 89.1 µM [inhibitor, partial curve, poor fit]"}
{"smiles": "COc1cccc(CNCCO)c1OCc1ccccc1", "Potency": "inactive"}
{"smiles": "Oc1c(-c2cc(-c3ccco3)[nH]n2)ccc2ccccc12", "activity, negative = inhibition": "inconclusive: -75.6% [inhibitor]"}
{"smiles": "CC(=O)N1CCc2c(sc(NC(=O)CN3C(=O)c4ccccc4C3=O)c2C(N)=O)C1", "Potency": "inconclusive: 56.2 µM [inhibitor, partial curve]"}
{"smiles": "COCCn1c(SCCN2CCCCC2)nc2ccccc2c1=O", "Potency": "inconclusive: 25.1 µM [inhibitor, partial curve, poor fit]"}
{"smiles": "COc1ccc(C(c2nnnn2C2CCCC2)N2CCc3ccccc3C2)cc1OC", "note": "(stereo not given)", "Potency": "inactive"}
{"smiles": "Clc1ccccc1CN1CCN(c2ncccn2)CC1", "Potency": "active: 31.6 µM"}
{"smiles": "CSc1ncccc1C(=O)Nc1cccc(S(=O)(=O)N(C)c2ccccc2)c1", "activity, negative = inhibition": "inactive: 13.2% [at 2.33 µM]"}
{"smiles": "COC(=O)c1ccc(OCC(O)CN(CCO)CCO)cc1", "note": "(stereo not given)", "Potency": "inconclusive: 89.1 µM [inhibitor, single point]"}
{"smiles": "CC(=O)N/C(=C\\c1ccc2c(c1)OCO2)C(=O)NC(C(=O)O)c1ccccc1", "note": "(stereo not given)", "Potency": "active: 89.1 µM"}
{"smiles": "COc1ccc(-c2noc(CNC(=O)c3ccco3)n2)cc1", "Potency": "inconclusive: 10 µM [inhibitor, partial curve, poor fit]"}
{"smiles": "O=S(=O)(c1ccc(F)c(F)c1)N1CCN(S(=O)(=O)c2cccs2)CC1", "activity, negative = inhibition": "inactive: -5.15% [at 12.7 µM]"}
{"smiles": "CC(=O)N1C2CCCCC2S[C@H]2CCCCC21", "note": "(stereo not given in full)", "Potency": "inconclusive: 56.2 µM [inhibitor, partial curve]"}
{"smiles": "CSCCC(NC(=O)/C(=C\\c1ccco1)NC(=O)c1ccco1)C(=O)O", "note": "(stereo not given)", "Potency": "inconclusive: 39.8 µM [inhibitor, partial curve, poor fit]"}
{"smiles": "O=S(=O)(Nc1cc(S(=O)(=O)N2CCOCC2)ccc1NCC1CCCO1)c1ccccc1F", "note": "(stereo not given)", "Potency": "inconclusive: 11.2 µM [inhibitor, single point]"}
{"smiles": "CC(C)Cn1c(N)c(C(=O)COC(=O)c2cc(-c3ccco3)nc3ccccc23)c(=O)n(C)c1=O", "Potency": "inconclusive: 4.47 µM [inhibitor, single point]"}
{"smiles": "Cc1ccc(N2CC(C(=O)Nc3cccnc3)CC2=O)cc1C", "note": "(stereo not given)", "Potency": "inactive"}
{"smiles": "Cc1cc(OC(C)C(=O)N2CCN(c3ccccc3)CC2)c2c(C)c(C)c(=O)oc2c1", "note": "(stereo not given)", "activity, negative = inhibition": "inactive: 20.9% [at 0.0925 µM]"}
{"smiles": "CCC(=O)NCc1c(Cl)cccc1-n1cccc1", "activity, negative = inhibition": "inactive: 35.8% [at 12.7 µM]"}
{"smiles": "Cc1ccc(C(C)(C)C)c(OCCCn2ccnc2)c1", "Potency": "active: 7.94 µM"}
{"smiles": "Cc1cc(C)n(C(CC(=O)O)C(=O)O)n1", "note": "(stereo not given)", "Potency": "inconclusive: 20 µM [inhibitor, single point]"}
{"smiles": "COc1ccc(-c2cn(-c3ccc(C)cc3)c(=O)n2CC(=O)Nc2cccc(F)c2)cc1", "Potency": "inconclusive: 89.1 µM [inhibitor, single point]"}
{"smiles": "O=C(CNC(c1ccccc1)c1ccccc1)Nc1c(F)cccc1F", "Potency": "inconclusive: 1.12 µM [inhibitor, full curve]"}
{"smiles": "COC(=O)c1ccc(CNC(=O)c2ccc3oc(C(C)C)nc3c2)cc1", "Potency": "inactive"}
{"smiles": "O=C(NCCc1c[nH]c2ccccc12)C(=O)Nc1cc2c3c(c1)CC(=O)N3CCC2", "Potency": "inconclusive: 79.4 µM [inhibitor, single point]"}
{"smiles": "CCOc1cc(N2CCOCC2)c(OCC)cc1NC(=O)CSc1cccc[n+]1[O-]", "activity, negative = inhibition": "inconclusive: -91.7% [inhibitor]"}
{"smiles": "COc1ccc(N2CCN(Cc3cc(=O)oc4ccc(C)cc34)CC2)cc1", "Potency": "inactive"}
{"smiles": "O=C(CC1(O)C(=O)Nc2ccccc21)c1ccc(-n2cccc2)cc1", "note": "(stereo not given)", "Potency": "inconclusive: 39.8 µM [inhibitor, single point]"}
{"smiles": "O=C1c2ccccc2NC(c2cccc(F)c2)N1Cc1ccco1", "note": "(stereo not given)", "Potency": "inconclusive: 28.2 µM [inhibitor, single point]"}
{"smiles": "Cc1nc(SCC(O)CCl)c([N+](=O)[O-])[nH]1", "note": "(stereo not given)", "Potency": "inconclusive: 28.2 µM [inhibitor, single point]"}
{"smiles": "COc1cc(O)c(C(CC(=O)N2CCCC2)c2ccc(N(C)C)cc2)c(OC)c1", "note": "(stereo not given)", "activity, negative = inhibition": "inconclusive: -79.2% [inhibitor]"}
{"smiles": "CC1(C)CC(=O)c2cc3c(nc2C1)CC(C)(C)CC3=O", "Potency": "inactive"}
{"smiles": "CCC(C)NC(=S)Nc1ccc2nc(N3CCN(CC)CC3)cc(C)c2c1", "note": "(stereo not given)", "Potency": "inconclusive: 39.8 µM [inhibitor, partial curve]"}
{"smiles": "Cc1ccc2c(c1)c(N=NC(N)=S)c(O)n2Cc1ccccc1", "Potency": "inactive"}
{"smiles": "O=C(CN(Cc1ccco1)C(=O)c1ccc([N+](=O)[O-])cc1)Nc1ccccc1C(F)(F)F", "Potency": "inconclusive: 6.31 µM [inhibitor, single point]"}
{"smiles": "C/C(=N/NC(=O)c1ccoc1C)c1ccc(NC(=O)C2CCCC2)cc1", "Potency": "inconclusive: 100 µM [inhibitor, single point]"}
{"smiles": "COc1ccc(O)c(CN2CCC(n3nccc3NC(=O)c3ccccc3Cl)CC2)c1", "Potency": "inconclusive: 44.7 µM [inhibitor, partial curve, poor fit]"}
{"smiles": "O=C(NCc1ccco1)C(=S)N1CCCC1", "Potency": "active: 31.6 µM"}
{"smiles": "Cc1ccc(S(=O)(=O)NNC(=O)c2ccncc2)cc1[N+](=O)[O-]", "Potency": "active: 50.1 µM"}
{"smiles": "COC(=O)c1ccccc1NC(=O)c1cncc(Br)c1", "Potency": "inactive"}
{"smiles": "CC1CCN(C(=O)CSc2nnc(CNc3ccc(F)cc3)n2Cc2ccco2)CC1", "Potency": "inconclusive: 39.8 µM [inhibitor, single point]"}
{"smiles": "Cc1ccc(S(=O)(=O)N2CCC(n3nnc4cc(C)ccc43)CC2)cc1", "Potency": "inactive"}
{"smiles": "COc1cc(C(C)=O)ccc1COc1ccc(C(=O)OC(C)C(=O)NC(N)=O)cc1OC", "note": "(stereo not given)", "Potency": "inconclusive: 89.1 µM [inhibitor, single point]"}
{"smiles": "COc1ccccc1CN(C)CC(=O)Nc1cccc2ccccc12", "Potency": "active: 50.1 µM"}
{"smiles": "Cc1ccc2c(c1)nnn2C1CCN(CC(=O)c2ccc(Cl)cc2)CC1", "Potency": "active: 44.7 µM"}
{"smiles": "CCOC(=O)N1CCN(C(=O)c2cn(C)c(=O)c3c2c2ccccc2n3C)CC1", "Potency": "inactive"}
{"smiles": "Cc1ccc(S(=O)(=O)N/N=C2/CCCCC2C2CCCCC2)cc1[N+](=O)[O-]", "note": "(stereo not given)", "Potency": "inconclusive: 39.8 µM [inhibitor, single point]"}
{"smiles": "COc1ccc(Cc2nc3ccc(C(=O)NCCc4cccc(C)n4)cc3o2)cc1", "Potency": "inconclusive: 31.6 µM [inhibitor, single point]"}
{"smiles": "C#CCOCCOCCOCCNc1nc(N2CCN(C(=O)[C@H](CCCCN)n3cc([C@@H](N)CO)nn3)CC2)nc(N2CCN(C(=O)[C@H](Cc3cc4ccccc4[nH]3)n3cc([C@@H](N)CO)nn3)CC2)n1", "Potency": "inconclusive: 11.2 µM [inhibitor, single point]"}
